Data as given in PubChem BioAssay AID1159614 (National Center for Advancing Translational Sciences (NCATS), 2016).
Screen size: about 45,000 compounds; about 65 (0.1%) were called active. Calls follow the shape of the dose curve; as a rule, active = well fitted activation curve with a large enough effect; inconclusive = small, poorly fitted or top-dose-only effect; inactive = no such curve, though single readings can be large or run the other way. The list shows a part of the results.

Each compound was assayed against Galactocerebrosidase (Homo sapiens) (UniProt P54803) (assay: A Novel Cell-Based Assay to Identify Small Molecules for B -Galactocerebrosidase). Conditions: 145M-Twi-hGALC-G270D cells (Twitcher mouse brain line with human GALC G270D), HMU-beta-Gal fluorescence, 48 h; series mostly up to 57.5 µM; activation: at the top concentration.
Summary of the method: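 Mutant human GALC (G270D), stably expressed in a Twitcher mouse brain cell line lacking endogenous GALC, is measured in live-treated cells via 6-hexadecanoylamino-4-methylumbelliferyl-β-galactoside hydrolysis (0.1 mM final, pH 5.2) with fluorescent detection.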
Also: 0% is about no effect; nearly all actives have a fitted effect of over 65% in size.

Chain of UniProt P54803 (P54803 whole entry, looked up): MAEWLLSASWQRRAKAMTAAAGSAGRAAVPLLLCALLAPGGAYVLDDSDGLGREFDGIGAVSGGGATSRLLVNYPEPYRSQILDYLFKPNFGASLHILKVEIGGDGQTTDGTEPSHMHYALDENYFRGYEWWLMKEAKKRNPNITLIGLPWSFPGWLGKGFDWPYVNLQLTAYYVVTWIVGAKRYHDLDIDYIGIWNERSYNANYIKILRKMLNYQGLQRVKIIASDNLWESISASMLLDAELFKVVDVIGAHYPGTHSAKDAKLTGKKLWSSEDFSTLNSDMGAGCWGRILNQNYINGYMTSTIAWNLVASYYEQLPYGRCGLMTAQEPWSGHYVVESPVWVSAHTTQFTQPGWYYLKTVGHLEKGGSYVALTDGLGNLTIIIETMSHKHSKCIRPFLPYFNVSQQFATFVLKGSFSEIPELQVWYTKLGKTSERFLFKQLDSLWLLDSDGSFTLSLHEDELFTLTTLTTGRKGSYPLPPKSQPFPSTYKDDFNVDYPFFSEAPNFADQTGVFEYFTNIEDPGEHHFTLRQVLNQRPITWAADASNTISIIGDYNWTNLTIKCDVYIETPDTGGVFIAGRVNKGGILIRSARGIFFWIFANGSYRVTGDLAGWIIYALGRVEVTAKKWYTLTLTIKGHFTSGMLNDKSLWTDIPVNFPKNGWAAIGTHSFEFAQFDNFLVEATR

activation, inactive:
CN(C1CCCCC1)S(=O)(=O)c1ccc2c(c1)c(=O)c(C(=O)N1CCN(c3ccccc3)CC1)cn2C -18.4%
Cc1ccc(NC(=O)CN2C(=O)CCSc3ccccc32)c(C)c1 -2.72%
COc1ccc(CCNC(=O)c2ccc3c(c2)nc(C)n3-c2ccc(Br)cc2)cc1OC -21.7%
Cc1nc2c3ccccc3nc(NNC(=O)CCC(=O)O)n2n1 -14.8%
Cc1ccccc1NC(=O)c1cc2c([nH]c1=O)CC(C)(C)CC2=O -17.4%
Cc1ccc(Cn2c(CO)cnc2SCc2ccc(F)cc2)cc1 -32.2%
Nc1ccc(S(=O)(=O)NCc2ccccc2)cc1 -9.14%
O=C(Nc1ccc(Cl)cc1Cl)c1cc(S(=O)(=O)NCc2ccc3c(c2)OCO3)ccc1F -6.86%
CCOc1ccc(C(=O)Nc2ccc(-c3cc4ccccc4oc3=O)cc2)cc1Br -20.2%
CN(C)c1ccc(CNC(=O)C2CCN(c3nnc(-n4cccc4)s3)CC2)cc1 -21.3%
Cc1nn(CCC(=O)Nc2ccc(Cl)cc2)c(C)c1S(=O)(=O)N1CCCCC1 -35.3%
COc1ccccc1Cn1cc(C(=O)c2ccccc2)c(=O)c2cc(OC)c(OC)cc21 -11.8%
Cc1ccc(C)c(NC(=O)Nc2cc3c(cc2N2CCCCC2)n(C)c(=O)n3C)c1 -13.1%
COc1ccc(Cn2c(C(=O)O)c(CNCc3ccco3)c3ccc(C)cc32)cc1 -9.18%
CCc1cccc(NC(=O)C2CCN(S(=O)(=O)c3ccc(Br)s3)CC2)c1 -11.1%
COc1cc(OC)c(NC(=O)C2=C(C)C(=O)OC23CCN(C(C)=O)CC3)cc1Cl -0.603%
CC1CC(OC(=O)c2ccccc2O)CC(C)(C)C1 (stereo not drawn) -13.7%
O=C(NCc1ccccc1)c1cccn1-c1nnc(N2CCCCC2)s1 -5.46%
Cc1ccc(-n2ncc3c(=O)n(Cc4cccc(Cl)c4)cnc32)cc1C -16.1%
Cc1ccc(CSc2nc3cccnc3n2Cc2ccc(C(=O)NC3CC3)cc2)cc1 0.846%
Cn1c(NCc2cccc(Cl)c2)nc2ccccc21 -9.24%
CCCn1c2ccccc2c2cnn(CC(=O)NCCc3ccc(S(N)(=O)=O)cc3)c(=O)c21 -0.0922%
COCCNC(=O)CSc1c(C)cnc2c1c(=O)n(C)c(=O)n2C -15.6%
COc1ccc(NC(=O)CCCOc2cc(=O)n(C)c3ccccc23)c(OC)c1 -12.1%
Cc1ccc(NC(=O)Cn2cnc3c(oc4ccccc43)c2=O)cc1Cl -5.77%
Brc1cccc(-c2nnn3c2nc(NC2CCCCC2)c2ccccc23)c1 -7.7%
Cc1ccc(-n2c(=O)c3ccc(C(=O)NCc4ccco4)cc3n(Cc3ccccc3Cl)c2=O)cc1 -15.6%
COc1ccccc1C(=O)Nc1nnc(SCc2cc(=O)c3ccccc3[nH]2)s1 -9.8%
C=Cc1ccc(CN2C(=O)N(c3ccc(C)c(C)c3)S(=O)(=O)c3ccccc32)cc1 0.496%
CCOc1ccc(NC(=O)c2cc3cc4ccc(C)cc4nc3o2)cc1 -13.5%
Cc1cccc(C)c1Nc1sc(C(=O)c2ccccc2)c(N)c1S(=O)(=O)c1ccccc1 -8.87%
COc1ccc2nc3sc(C(=O)NCCc4ccc(Cl)cc4)cc3cc2c1 -11.5%
CC1CCCCN1CCNC(=O)c1ccc(Cn2c(SCc3ccccc3)nc3cccnc32)cc1 (stereo not drawn) -16.1%
CCS(=O)(=O)c1ncc(Cl)c(C(=O)Nc2ccc(S(=O)(=O)N(C)c3ccccc3)cc2)n1 -52.4%
Cc1nn(-c2ccc(N3CCOCC3)nn2)c(C)c1CCC(=O)NCc1ccc(Cl)cc1 3.63%
CCC(C)n1c(SCC(=O)Nc2ccccc2C(=O)OC)nc2ccsc2c1=O (stereo not drawn) 3.52%
O=C(NCc1c(-n2cccc2)sc2c1CCCC2)Nc1cccc(C(F)(F)F)c1 -8.92%
Cc1cc(Nc2ccccc2C)c2cccc(C)c2n1 -7.22%
COc1cccc(CNC(=O)c2cccc(N3CCCS3(=O)=O)c2)c1 -7.06%
COCCCNC(=O)CCCn1c(SCC(=O)c2ccc(Br)cc2)nc2c(sc3ccccc32)c1=O -9.98%
Cc1ccc(C(=O)NCC(c2ccc(Cl)cc2)N2CCCCC2)cc1 (stereo not drawn) -10.2%
CCc1ccc(NC(=O)C2CCCN(S(=O)(=O)c3ccc4c(c3)oc(=O)n4C)C2)cc1 (stereo not drawn) -9.98%
CCOc1ccc(C(=O)N2CC(=O)Nc3ccc(C)cc3C2c2ccc(F)cc2)cc1OCC (stereo not drawn) -1.69%
Cc1cc2oc(C(=O)N(Cc3ccc(Cl)cc3)Cc3ccco3)c(C)c2cc1Cl -8.61%
Cc1cc(C)c(NC(=O)c2cc(C)nc3c2c(C)nn3-c2cccc(F)c2)c(C)c1 -12.6%
CCc1ccc(-c2nn(-c3ccc(OC)cc3)c3c2cnc2ccc(OC)cc23)cc1 -24.3%
CCN(CC)C(=O)c1c(NC(=O)c2ccccc2F)sc2c1CCC(C(C)(C)C)C2 (stereo not drawn) -15.4%
CC(C)(C)OC(=O)N1CCC(c2c(C(=O)N3CCCCC3)cnn2-c2ccc(F)cc2)CC1 -10.2%
COc1cccc(NC(=O)c2oc3ccc(S(=O)(=O)N(C)C4CCCCC4)cc3c2C)c1 1.02%
Cc1ccc(C)c(NC(=O)CSc2nc3ccccc3nc2N2CCOCC2)c1 -10.2%
CCSc1ccccc1C(=O)N1CCN(c2nc3ccccc3s2)CC1 -10.4%
COc1ccccc1C(=O)Nc1cccc(OCc2cc(=O)n3ccccc3n2)c1 -0.875%
COC(=O)c1ccc(NC(=O)c2cnn(-c3ccc(Cl)cc3)c2C2CCN(C(=O)OC(C)(C)C)CC2)cc1 10.6%
CCC1CCCCN1CCCNC(=O)c1cn(C)c2ccc(S(=O)(=O)N(C)C3CCCCC3)cc2c1=O (stereo not drawn) -10.5%
O=C1CC(c2ccc(Cl)cc2)CC(=O)N1 -16.9%
COc1cccc(N2CCN(C(=O)c3cccn3-c3nnc(N4CCCCC4)s3)CC2)c1 -18.6%
O=C(CSc1nccn1Cc1ccc2c(c1)OCO2)Nc1ccccc1F -14.3%
COc1cc(NC(=O)CCn2nc(C)cc2C)cc(OC)c1OC 0.94%
CCCn1c(=O)sc2cc(NC(=O)c3ccccc3Cl)ccc21 6.39%
Cc1c(Cl)cccc1NC(=O)Nc1c[nH]c(=O)[nH]c1=O 1.13%
Cc1cccc(NC(=O)CSc2nc3c([nH]c4ccccc43)c(=O)n2-c2cc(C)cc(C)c2)c1 -6.15%
CC1CCCCN1C(=O)CSc1nc(-c2ccccc2)no1 (stereo not drawn) -2.06%
COc1cc(/C=C(/C#N)c2nc(-c3cc4ccccc4oc3=O)cs2)ccc1O -10.1%
CCOC(=O)C1=C(CN2CCC(C)CC2)NC(=O)NC1c1ccc(OC(C)C)cc1 (stereo not drawn) -3.43%
CCOC(=O)c1ccccc1NC(=O)CSc1nc(=O)[nH]c2c1CCCC2 -11.5%
CSc1cccc(-n2nnc(-c3nsc(NC(=O)c4cccs4)n3)c2C)c1 -8.22%
COc1cccc(CNC(=O)Cn2c(=O)ccc3cc(S(=O)(=O)N4CCCC4)ccc32)c1 -6.57%
CCc1ccc(S(=O)(=O)c2nnn3c2nc(N(C)Cc2ccccc2)c2cc(Cl)ccc23)cc1 -0.45%
COc1ccc(Nc2nc3c(S(=O)(=O)c4ccccc4)nnn3c3ccc(Cl)cc23)cc1 -22.9%
Cc1cc(=O)n(CC(=O)N2CCCCC2)c2c1c(C)nn2C -6.09%
CCN(CC)CCCNC(=O)c1cn(CC)c2ccc(S(=O)(=O)N3CCC(C)CC3)cc2c1=O -14.7%
CCc1ccc2occ(CC(=O)N(Cc3ccccc3)C3CCS(=O)(=O)C3)c2c1 (stereo not drawn) -7.35%
Cc1ccc(NC(=O)CN2C(=O)C(c3ccccc3)=NC23CCCCC3)cc1C 1.28%
CCS(=O)(=O)N1CCCc2cc(C(=O)Nc3cc([N+](=O)[O-])ccc3C)ccc21 -26.3%
COc1ccc(-n2c(C)nc3c(cnn3-c3ccc(C)c(C)c3)c2=O)cc1Cl -4.07%
CC(C)(C)c1cc(C=O)cc(C(C)(C)C)c1O -10.7%
COc1ccc(NC(=O)Cn2c(=O)n(CCCC(=O)NCc3ccccc3Cl)c(=O)c3ccccc32)c(OC)c1 2.35%
Cc1cccc(CNC(=O)c2ccc3c(c2)N(C)CCS3)c1 -3.82%
CCc1ccc(C(c2ccccc2)c2c(C)[nH]c3ccccc23)s1 (stereo not drawn) 15.7%
Cc1cc(C)c(NC(=O)CSc2nc3ccccc3c3nc(-c4ccccc4)nn23)c(C)c1 -19.8%
Cc1ccc(C)c(N2CCN(S(=O)(=O)c3ccc4[nH]c5c(c4c3)CCCC5)CC2)c1 -15.5%
COc1ccc(CNCc2c(C(=O)O)c(C)n(Cc3ccccc3C)c2C)cc1OC -11.7%
COc1ccc(N2CCN(c3ncccc3-c3nc(-c4ccccc4C)no3)CC2)cc1 -1.95%
CCOC(=O)c1sc2ccccc2c1S(=O)(=O)Nc1cc(OC)ccc1OC -10.1%
Cc1ccccc1CNC(=O)Cn1nc(C)c2nn(-c3ccc(Cl)cc3)c(C)c2c1=O -18.6%
Fc1ccc(N2CCN(Cc3nnc(-c4ccccc4Cl)o3)CC2)cc1 -16.2%
O=C1c2[nH]nc(-c3ccccc3O)c2C(c2cccc(OCc3ccccc3)c2)N1CCCO (stereo not drawn) -6.27%
CCc1cccc(C)c1Nc1c(-c2ccc(F)cc2)nc2sccn12 2.21%
COc1ccc(Cn2c(SCc3ccc(C(=O)NC4CCCCC4)cc3)nc3ccncc32)cc1 -10.1%
COc1ccc(CNS(=O)(=O)c2ccc(C(=O)N(C)C)s2)cc1 -10.5%
COc1ccccc1N1CCN(c2nc3c(S(=O)(=O)c4ccccc4)nnn3c3ccc(Cl)cc23)CC1 -13.9%
CCOC(=O)c1scc(-c2ccccc2)c1S(=O)(=O)Nc1ccccc1OC 0.623%
N#Cc1nc(-c2ccc(COc3ccc(Cl)cc3)o2)oc1N1CCCCC1 -12.9%
Cc1ccc(CNc2nc(-c3ccco3)nn2C(=O)c2ccccc2[N+](=O)[O-])cc1 -5.21%
Cc1ccc2c(=O)c(C(=O)c3ccccc3)cn(CC(=O)NCc3ccccc3)c2n1 -18%
CCOc1ccc(NC(=O)CSc2ncc(S(=O)(=O)c3ccc(F)c(C)c3)c(=O)[nH]2)cc1 -9.14%
COc1ccc(S(=O)(=O)N2CCC(Oc3cccc(C(F)(F)F)c3)CC2)cc1OC 8.22%
O=C(CCCN1CCN(c2ccccn2)CC1)c1ccc(F)cc1 -0.85%
